# This is one part of the list.
# B1: Siglec-F (Mus musculus), Q920G3 (protein)
# chain: MRWAWLLPLLWAGCLATDGYSLSVTGSVTVQEGLCVFVACQVQYPNSKGPVFGYWFREGANIFSGSPVATNDPQRSVLKEAQGRFYLMGKENSHNCSLDIRDAQKIDTGTYFFRLDGSVKYSFQKSMLSVLVIALTEVPNIQVTSTLVSGNSTKLLCSVPWACEQGTPPIFSWMSSALTSLGHRTTLSSELNLTPRPQDNGTNLTCQVNLPGTGVTVERTQQLSVIYAPQKMTIRVSWGDDTGTKVLQSGASLQIQEGESLSLVCMADSNPPAVLSWERPTQKPFQLSTPAELQLPRAELEDQGKYICQAQNSQGAQTASVSLSIRSLLQLLGPSCSFEGQGLHCSCSSRAWPAPSLRWRLGEGVLEGNSSNGSFTVKSSSAGQWANSSLILSMEFSSNHRLSCEAWSDNRVQRATILLVSGPKVSQAGKSETSRGTVLGAIWGAGLMALLAVCLCLIFFTVKVLRKKSALKVAATKGNHLAKNPASTINSASITSSNIALGYPIQGHLNEPGSQTQKEQPPLATVPDTQKDEPELHYASLSFQGPMPPKPQNTEAMKSVYTEIKIHKC
# What was measured:
# Assay in all cases: glycan array binding signal (z-score within array); higher = stronger binding
# Conditions in all cases: glycan notation: IUPAC condensed, linker removed
# [1] = target: Fuc(a1-2)[Gal(a1-3)]Gal(b1-3)GlcNAc(b1-6)GalNAc
# How it was run: (§1)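 From the Consortium for Functional Glycomics database, 3228 arrays were curated, keeping only those whose protein sequence was available. Binding is given as a within-array Z-score averaged across arrays sharing a protein sequence and across linkers. Negative Z-scores can be read as non-binding.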
# [2] = target: Fuc(a1-2)[Gal(a1-3)]Gal(b1-4)Glc
# How it was run: as §1
# [3] = target: Fuc(a1-2)[Gal(a1-3)]Gal(b1-4)GlcNAc
# How it was run: as §1
# [4] = target: Fuc(a1-2)[Gal(a1-3)]Gal(b1-4)GlcNAc(b1-2)Man
# How it was run: as §1
# [5] = target: Fuc(a1-2)[Gal(a1-3)]Gal(b1-4)GlcNAc(b1-2)Man(a1-3)[Fuc(a1-2)[Gal(a1-3)]Gal(b1-4)GlcNAc(b1-2)Man(a1-6)]Man(b1-4)GlcNAc(b1-4)GlcNAc
# How it was run: as §1
# [6] = target: Fuc(a1-2)[Gal(a1-3)]Gal(b1-4)GlcNAc(b1-2)Man(a1-3)[Fuc(a1-2)[Gal(a1-3)]Gal(b1-4)GlcNAc(b1-2)Man(a1-6)]Man(b1-4)GlcNAc(b1-4)[Fuc(a1-6)]GlcNAc
# How it was run: as §1
# [7] = target: Fuc(a1-2)[Gal(a1-3)]Gal(b1-4)GlcNAc(b1-3)GalNAc
# How it was run: as §1
# [8] = target: Fuc(a1-2)[Gal(a1-3)]Gal(b1-4)GlcNAc(b1-3)[Fuc(a1-2)[Gal(a1-3)]Gal(b1-4)GlcNAc(b1-6)]GalNAc
# How it was run: as §1
# [9] = target: Fuc(a1-2)[Gal(a1-3)]Gal(b1-4)GlcNAc(b1-6)GalNAc
# How it was run: as §1
# [10] = target: Fuc(a1-2)[Gal(a1-3)]Gal(b1-4)[Fuc(a1-3)]Glc
# How it was run: as §1
# [11] = target: Fuc(a1-2)[Gal(a1-3)]Gal(b1-4)[Fuc(a1-3)]GlcNAc
# How it was run: as §1
# [12] = target: Fuc(a1-2)[Gal(a1-3)]Gal(b1-4)[Fuc(a1-3)]GlcNAc(b1-3)GalNAc
# How it was run: as §1
# [13] = target: Fuc(a1-2)[Gal(a1-4)]Gal(b1-4)GlcNAc
# How it was run: as §1
# [14] = target: Fuc(a1-2)[GalNAc(a1-3)]Gal
# How it was run: as §1
# [15] = target: Fuc(a1-2)[GalNAc(a1-3)]Gal(b1-3)GalNAc(a1-3)[Fuc(a1-2)]Gal(b1-4)GlcNAc
# How it was run: as §1
# [16] = target: Fuc(a1-2)[GalNAc(a1-3)]Gal(b1-3)GalNAc(b1-3)Gal(a1-4)Gal(b1-4)Glc
# How it was run: as §1
# [17] = target: Fuc(a1-2)[GalNAc(a1-3)]Gal(b1-3)GlcNAc
# How it was run: as §1
# [18] = target: Fuc(a1-2)[GalNAc(a1-3)]Gal(b1-3)GlcNAc(b1-2)Man(a1-3)[Fuc(a1-2)[GalNAc(a1-3)]Gal(b1-3)GlcNAc(b1-2)Man(a1-6)]Man(b1-4)GlcNAc(b1-4)GlcNAc
# How it was run: as §1
# [19] = target: Fuc(a1-2)[GalNAc(a1-3)]Gal(b1-3)GlcNAc(b1-2)Man(a1-3)[Fuc(a1-2)[GalNAc(a1-3)]Gal(b1-3)GlcNAc(b1-2)Man(a1-6)]Man(b1-4)GlcNAc(b1-4)[Fuc(a1-6)]GlcNAc
# How it was run: as §1
# [20] = target: Fuc(a1-2)[GalNAc(a1-3)]Gal(b1-3)GlcNAc(b1-3)GalNAc
# How it was run: as §1
# [21] = target: Fuc(a1-2)[GalNAc(a1-3)]Gal(b1-3)GlcNAc(b1-6)GalNAc
# How it was run: as §1
# [22] = target: Fuc(a1-2)[GalNAc(a1-3)]Gal(b1-4)Glc
# How it was run: as §1
# [23] = target: Fuc(a1-2)[GalNAc(a1-3)]Gal(b1-4)GlcNAc
# How it was run: as §1
# [24] = target: Fuc(a1-2)[GalNAc(a1-3)]Gal(b1-4)GlcNAc(b1-2)Man
# How it was run: as §1
# [25] = target: Fuc(a1-2)[GalNAc(a1-3)]Gal(b1-4)GlcNAc(b1-2)Man(a1-3)[Fuc(a1-2)[GalNAc(a1-3)]Gal(b1-4)GlcNAc(b1-2)Man(a1-6)]Man(b1-4)GlcNAc(b1-4)GlcNAc
# How it was run: as §1
# [26] = target: Fuc(a1-2)[GalNAc(a1-3)]Gal(b1-4)GlcNAc(b1-2)Man(a1-3)[Fuc(a1-2)[GalNAc(a1-3)]Gal(b1-4)GlcNAc(b1-2)Man(a1-6)]Man(b1-4)GlcNAc(b1-4)[Fuc(a1-6)]GlcNAc
# How it was run: as §1
# [27] = target: Fuc(a1-2)[GalNAc(a1-3)]Gal(b1-4)GlcNAc(b1-3)Gal(b1-4)GlcNAc
# How it was run: as §1
# [28] = target: Fuc(a1-2)[GalNAc(a1-3)]Gal(b1-4)GlcNAc(b1-3)Gal(b1-4)GlcNAc(b1-3)Gal(b1-4)GlcNAc
# How it was run: as §1
# [29] = target: Fuc(a1-2)[GalNAc(a1-3)]Gal(b1-4)GlcNAc(b1-3)GalNAc
# How it was run: as §1
# [30] = target: Fuc(a1-2)[GalNAc(a1-3)]Gal(b1-4)GlcNAc(b1-3)[Fuc(a1-2)[GalNAc(a1-3)]Gal(b1-4)GlcNAc(b1-6)]GalNAc
# How it was run: as §1
binder,measurement,setting,value
B1,glycan array binding signal (z-score),[1],0.012
same,glycan array binding signal (z-score),[2],-0.112
same,glycan array binding signal (z-score),[3],-0.127
same,glycan array binding signal (z-score),[4],-0.144
same,glycan array binding signal (z-score),[5],-0.031
same,glycan array binding signal (z-score),[6],-0.067
same,glycan array binding signal (z-score),[7],-0.097
same,glycan array binding signal (z-score),[8],0.018
same,glycan array binding signal (z-score),[9],-0.106
same,glycan array binding signal (z-score),[10],-0.126
same,glycan array binding signal (z-score),[11],-0.107
same,glycan array binding signal (z-score),[12],0.07
same,glycan array binding signal (z-score),[13],-0.108
same,glycan array binding signal (z-score),[14],-0.12
same,glycan array binding signal (z-score),[15],-0.104
same,glycan array binding signal (z-score),[16],-0.151
same,glycan array binding signal (z-score),[17],-0.128
same,glycan array binding signal (z-score),[18],-0.107
same,glycan array binding signal (z-score),[19],-0.099
same,glycan array binding signal (z-score),[20],-0.094
same,glycan array binding signal (z-score),[21],-0.114
same,glycan array binding signal (z-score),[22],-0.113
same,glycan array binding signal (z-score),[23],-0.129
same,glycan array binding signal (z-score),[24],-0.156
same,glycan array binding signal (z-score),[25],-0.049
same,glycan array binding signal (z-score),[26],-0.049
same,glycan array binding signal (z-score),[27],-0.118
same,glycan array binding signal (z-score),[28],-0.111
same,glycan array binding signal (z-score),[29],-0.124
same,glycan array binding signal (z-score),[30],-0.106
